Here are results for seven molecules from patent US20230135471A1 (INTEGRATED DNA TECHNOLOGIES, published 2023).

The target of assay [1] is MBP tagged 53BP1 fragment (a.a. 1484-1603). Nature of the assay: BLI, 360 s association, 1:1 global fit. Background: Biolayer interferometry detects binding as a change in optical thickness at a sensor tip.
The target is the same in assay [2]. Kind of assay: BLI, 1.03 µM 53BP1 fragment.
For assay [3] the target is unchanged. Nature of the assay: BLI, 0.2562 µM 53BP1 fragment.
Assay [4] shares this target. Nature of the assay: BLI, 0.128 µM 53BP1 fragment.
The target is the same in assay [5]. Nature of the assay: BLI response vs 53BP1 fragment concentration, one site-specific binding fit, R2 .98.
For assay [6] the target is unchanged. Kind of assay: BLI, Ubv on Ni-NTA tip, 1:1 global fit.
The target is the same in assay [7]. Kind of assay: BLI, 2.05 µM 53BP1 fragment.
The target is the same in assay [8]. Nature of the assay: BLI, 0.5125 µM 53BP1 fragment.
Assay [9] has the same target. Nature of the assay: BLI, 5.13 µM 53BP1 fragment.
For assay [10] the target is unchanged. Nature of the assay: BLI response vs 53BP1 fragment concentration, one site-specific binding fit, R2 .97.
The target is the same in assay [11]. Kind of assay: BLI, KA (M-1), log axis.
Assay [12] shares this target. Kind of assay: BLI, 0.25 µM 53BP1 fragment.
Assay [13] has the same target. Kind of assay: BLI, 1 µM 53BP1 fragment.
The target is the same in assay [14]. Nature of the assay: BLI, 20 µM 53BP1 fragment.
The target is the same in assay [15]. Nature of the assay: BLI, 5 µM 53BP1 fragment.
Assay [16] shares this target. Kind of assay: BLI, 2 µM 53BP1 fragment.
The target is the same in assay [17]. Nature of the assay: BLI, 90 s association, 1:1 global fit.
The target is the same in assay [18]. Kind of assay: BLI, 0.125 µM 53BP1 fragment.
Assay [19] has the same target. Nature of the assay: BLI, 0.5 µM 53BP1 fragment.
Assay [20] shares this target. Kind of assay: BLI response vs 53BP1 fragment concentration, one site-specific binding fit, R2 .99.

B1: CM1, His-tagged (designed binder)
chain: MHHHHHHGGSGMLIFVRMLTGKMIELEVEPSDTIENVKAKIQDHEGIPPDQQRLAFQGKSLEDGRTLSDYNILKDPKKMPLLRLR
Broadly, the Kd is the free concentration of one partner at which half of the binding sites on the other are occupied at equilibrium, for simple one-to-one binding. What is called koff is the first-order rate constant of dissociation. Lower therefore signals a long-lived complex. By kon is commonly meant the second-order rate constant of association. A lower kon goes with slow association. Take B1: the dissociation constant (Kd) in [1] was found to be 23.5 nM; in assay [5], 64 nM; in [6] it was 21 nM. For the same molecule, the off-rate constant (koff) in [1] was 0.00254 s⁻¹; in [6], 0.00309 s⁻¹. In addition, the on-rate (kon) in assay [1] stood at 108000 M⁻¹ s⁻¹; in [6] it was 147000 M⁻¹ s⁻¹. The Response in [2] was 1.25; in assay [3], 0.888; in assay [4] it was 0.724; in assay [7], 1.31; in assay [8] it was 1.07; in [9], 1.38.

B2: CM26, His-tagged (designed binder)
chain: MHHHHHHGGSGMLIFVKTLTGKMITLEVEPSDTIENVKAKIQDHEGIPPDQQRLAFQGKSLEDGRTLSDYNILKDSKLMPLLRLR
Turning to B2, the Response was 0.821 in assay [2]; 0.442 in assay [3]; 0.298 in assay [4]; 0.956 in assay [7]; 0.63 in assay [8]; 1.07 in assay [9]. In assay [6], this molecule displayed an equilibrium dissociation constant (Kd) of 123 nM. Besides, in assay [6], the off-rate constant (koff) amounted to 0.0167 s⁻¹. The on-rate (kon) in assay [6] worked out at 136000 M⁻¹ s⁻¹.

B3: CM7, His-tagged (designed binder)
chain: MHHHHHHGGSGMLIFVRTLTGKTITLEVEPSDTIENVKAKIQDHEGIPPDQQRLAFQGKSLEDGRTLSDYNILKDPKLHPLLRLR
Consider B3, for which the results for the Kd in [1], in assay [6] and in assay [10] were 297 nM, 214 nM and 392 nM, respectively. The koff in assay [1] worked out at 0.00638 s⁻¹; in [6] it was 0.00714 s⁻¹. The figures for the on-rate (kon) in assay [1] and in assay [6] were 21500 M⁻¹ s⁻¹ and 33300 M⁻¹ s⁻¹, respectively. Besides, the Response amounted to 0.8 in assay [2]; 0.402 in assay [3]; 0.251 in assay [4]; 0.989 in assay [7]; 0.589 in [8]; 1.14 in assay [9].

B4: CM158-DM (designed binder)
Ubv: MHHHHHHGGSGMLIFVRMLTGKMIELEVMPSDTIEVVKAKIQDHEGIPPDQQHLAFQGTSLEDGYTLGDYNLLIDPKKMLVLRLR
notes: also called CM211
Regarding B4, the binding result in [11] is “binds”.

B5: i53 with N-terminal His tag and short flexible linker (designed binder)
chain: MHHHHHHGGSGMLIFVKTLTGKTITLEVEPSDTIENVKAKIQDKEGIPPDQQRLAFAGKSLEDGRTLSDYNILKDSKLHPLLRLR
As to B5, the Response was determined as 0.0221 in [12]; 0.126 in [13]; 0.574 in [14]; 0.34 in assay [15]; 0.221 in [16]; 0.0006 in assay [18]. This molecule also gave a Response in assay [19] of 0.0627. The Kd came out at 5920 nM in assay [6], 3.87 µM in assay [17] and 3.08 µM in [20]. Besides, the off-rate constant (koff) in [6] was 0.0887 s⁻¹; in assay [17], 0.0892 s⁻¹. Moreover, the association rate constant (kon) is 15000 M⁻¹ s⁻¹ in assay [6] and 23000 M⁻¹ s⁻¹ in [17].

B6: CM13, His-tagged (designed binder)
chain: MHHHHHHGGSGMLIFVKMLTGKTIELEVEPSDTIENVKAKIQDKEGIPPDQQRLAFQGKSLEDGRTLSDYNILKDSKKHPLLRLR
For the molecule B6, the Response was determined as 0.948 in [2]; 0.473 in [3]; 0.306 in assay [4]; 1.15 in [7]; 0.694 in assay [8]; 1.33 in assay [9]. This molecule also displayed a Kd in assay [6] of 222 nM. In [6], this molecule came in with a koff of 0.00902 s⁻¹. In addition, in assay [6], the association rate constant (kon) was determined as 40700 M⁻¹ s⁻¹.

B7: CM147-DM (designed binder)
Ubv: MHHHHHHGGSGMLIFVRMLTGKMIELEVMPSDTIEVVKAKIQDHEGIPLDQQHLTFQGTLLEDGYTLGDYNLLIDPKKMLVLRLQ
notes: also called CM208
Regarding B7, the binding result in assay [11] is on record as “binds”.
